Test results taken from the supplement of paper PMC4967469.
By IC50 is meant the dose at which the fit gives 50% viability; fits outside the tested doses are given as limits. AUC sums up the same curve from the lowest dose to the 256-fold higher top dose; the more sensitive the line, the further below 1. For some assays here: Where the top dose is marked as inferred, it is not printed in the source and was worked back from the curve model. For some assays here: Where an entry number is given, a second screen of the drug exists; the two often differ.

Experiments:
Assay in all cases: Viability of human cancer cell lines after 72 h of drug (GDSC screen)
[1] = compound: CCNC(=O)c1noc(-c2cc(C(C)C)c(O)cc2O)c1-c1ccc(CN2CCOCC2)cc1 [AUY922]; settings: top dose 0.256 µM; top dose inferred
Protocol: (§1)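 Human cancer cell lines in 384-well plates, medium with 10% serum, drug for 72 h over a 256-fold dose range (nine 2-fold or five 4-fold steps up to the top dose). Adherent lines were fixed and stained with the nucleic acid dye Syto60, suspension lines read with resazurin; signal relative to control wells, capped at 0 and 100%. One two-parameter sigmoid per drug and line, fitted in a mixed model over all curves with the slope shared within a line.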

[2] = compound: Cc1ccc(Nc2cc(-c3cccc(N4C(=O)c5ccccc5C4=O)c3)ncn2)cc1NS(C)(=O)=O [KIN001-270]; settings: top dose 20 µM; top dose inferred
Protocol: as §1

[3] = compound: CC(C)c1ccccc1Cc1cc(C(=O)Nc2ccc(S(=O)(=O)c3ccccc3C(C)(C)C)cc2)c(O)c(O)c1O [TW-37]; settings: top dose 5 µM
Protocol: as §1

[4] = compound: Cc1cn(-c2cc(NC(=O)c3ccc(C)c(Nc4nccc(-c5cccnc5)n4)c3)cc(C(F)(F)F)c2)cn1 [Nilotinib]; settings: top dose 2 µM
Protocol: as §1

[5] = compound: Nc1ccn([C@@H]2O[C@H](CO)[C@@H](O)C2(F)F)c(=O)n1 [Gemcitabine]; settings: top dose 1.024 µM
Protocol: as §1

[6] = compound: CC(O)(CS(=O)(=O)c1ccc(F)cc1)C(=O)Nc1ccc(C#N)c(C(F)(F)F)c1 [Bicalutamide]; settings: top dose inferred
Protocol: as §1

[7] = compound: S=C(NCc1ccc2c(c1)OCO2)N1CCN(c2ncnc3c2oc2ccccc23)CC1 [MP470]; settings: top dose 20 µM; top dose inferred
Protocol: as §1

[8] = compound: C/C(O)=C(\C#N)C(=O)Nc1cc(Br)ccc1Br [LFM-A13]; settings: top dose 16 µM; top dose inferred
Protocol: as §1

[9] = compound: O=S(=O)(c1ccccc1)N(CC(F)(F)F)c1ccc(C(O)(C(F)(F)F)C(F)(F)F)cc1 [T0901317]; settings: top dose 10.24 µM; top dose inferred
Protocol: as §1

[10] = top dose 1.024 µM, screen: GDSC drug entry 150
[11] = top dose 10 µM, screen: GDSC drug entry 1502

Cell Line	AUC [1]	IC50 [1] [nM]	AUC [2]	IC50 [2] [µM]	AUC [3]	IC50 [3] [nM]	AUC [4]	IC50 [4] [nM]	AUC [5]	IC50 [5] [nM]	AUC [6, 10]	IC50 [6, 10] [µM]	AUC [6, 11]	IC50 [6, 11] [µM]	AUC [7]	IC50 [7] [µM]	AUC [8]	IC50 [8] [µM]	AUC [9]	IC50 [9] [µM]
23132-87 (stomach, adherent)	0.769	99.7	0.97	> 20	0.593	568	0.986	> 2000	0.473	53.8	0.982	> 1.02	0.985	> 10	0.922	> 20	0.96	> 16	0.977	> 10.2
A431 (skin, adherent)	0.412	9.31	0.961	> 20	0.745	1520	0.981	> 2000	0.076	< 4	0.987	> 1.02	0.969	> 10	0.935	> 20	0.956	> 16	0.981	> 10.2
A2780 (ovary, semi-adherent)	0.454	12	0.916	> 20	0.467	253	0.981	> 2000	0.182	6.79	0.984	> 1.02	0.975	> 10	0.692	4.42	0.954	> 16	0.965	> 10.2
ACHN (kidney, adherent)	0.52	18.3	0.977	> 20	0.404	164	0.932	> 2000	0.048	< 4	0.983	> 1.02	0.952	> 10	0.916	> 20	0.97	> 16	0.964	> 10.2
COLO-783 (melanoma, adherent)	0.859	199	0.989	> 20			0.991	> 2000	0.991	> 1020	0.991	> 1.02	0.987	> 10	0.953	> 20	0.99	> 16	0.986	> 10.2
Daoy (medulloblastoma, adherent)	0.354	6.58	0.954	> 20	0.428	202	0.981	> 2000	0.068	< 4	0.989	> 1.02	0.982	> 10	0.54	1.59	0.962	> 16		
G-292 Clone A141B1 (osteosarcoma, adherent)	0.608	37.7	0.976	> 20			0.954	> 2000	0.976	> 1020	0.84	> 1.02	0.967	> 10	0.976	> 20	0.952	> 16	0.962	> 10.2
